# According to PubChem BioAssay AID1460 (National Center for Advancing Translational Sciences (NCATS), 2008):
# Values joined by “and” are separate entries in the source; they are usually repeats but may differ in a detail not shown here. Equal entries are not always repeated. Screen size: about 270,000 compounds; about 5,800 (2.1%) were called active. The shares of active, inactive and inconclusive entries below differ from those in the screen. Calls come from the whole dose curve; as a rule, active = well fitted inhibition curve with a large enough effect; inconclusive = small, poorly fitted or top-dose-only effect; inactive = flat fitted curve, though single readings scatter. Where the call is inconclusive, the potency comes from a doubtful curve fit.
# Biological target: Microtubule-associated protein tau (Homo sapiens) (UniProt P10636)
# Experiment: qHTS for Inhibitors of Tau Fibril Formation, Thioflavin T Binding; note: nearly all actives have a fitted effect of over 55% in size
# Settings: recombinant tau K18 P301L (four-repeat tau fragment), heparin-induced fibrillization, ThT fluorescence; series mostly up to 57.4 µM
# Outline: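 Tau K18 P301L fragment (15 uM unlabeled plus 0.24 uM Alexa 594-labeled) in 100 mM sodium acetate pH 7 with compound, fibrillization induced by 20 uM heparin for 6 hr at 37 C. Thioflavin T (30 uM) added, fluorescence read after 1 hr (ex 450, em 510 nm).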
# Potency is the fitted concentration of half-maximal effect; tags give direction and shape of the fitted curve.
# UniProt P10636, sequence (P10636 whole entry, looked up): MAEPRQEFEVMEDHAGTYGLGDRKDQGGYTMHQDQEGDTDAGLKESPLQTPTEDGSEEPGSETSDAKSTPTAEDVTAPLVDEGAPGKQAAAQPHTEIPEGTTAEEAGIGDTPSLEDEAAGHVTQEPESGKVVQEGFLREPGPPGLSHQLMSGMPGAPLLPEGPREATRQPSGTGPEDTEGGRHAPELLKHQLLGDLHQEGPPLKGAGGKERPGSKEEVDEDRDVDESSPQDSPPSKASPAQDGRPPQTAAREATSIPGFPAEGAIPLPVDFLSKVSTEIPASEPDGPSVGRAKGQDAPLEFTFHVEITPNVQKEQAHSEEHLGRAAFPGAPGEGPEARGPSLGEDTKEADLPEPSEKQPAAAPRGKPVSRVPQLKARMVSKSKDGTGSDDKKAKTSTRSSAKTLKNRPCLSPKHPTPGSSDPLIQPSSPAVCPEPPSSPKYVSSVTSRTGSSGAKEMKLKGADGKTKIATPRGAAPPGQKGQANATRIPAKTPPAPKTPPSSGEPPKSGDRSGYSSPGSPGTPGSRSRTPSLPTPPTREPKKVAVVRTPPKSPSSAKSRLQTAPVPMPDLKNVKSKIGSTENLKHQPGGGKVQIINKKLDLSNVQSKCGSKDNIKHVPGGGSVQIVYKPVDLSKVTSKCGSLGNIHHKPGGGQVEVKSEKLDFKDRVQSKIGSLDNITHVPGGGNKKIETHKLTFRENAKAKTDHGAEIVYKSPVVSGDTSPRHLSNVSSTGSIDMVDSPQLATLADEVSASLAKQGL
row,Structure (SMILES),Potency
1,COc1ccc(Cl)cc1NC(=O)c1c(NCc2cccs2)sc2c1CCC(C)C2 (centres undefined),"inconclusive: 11.2 µM [inhibitor, partial curve]"
2,COc1ccc2c(Cl)c(C(=O)N/N=C3\CCCC(=O)C3)sc2c1,"inconclusive: 11.2 µM [inhibitor, partial curve]"
3,O=C(NCCc1ccccc1)C(=O)Nc1ccc([N+](=O)[O-])cc1,"inconclusive: 1.78 µM [inhibitor, full curve]"
4,Cc1ccc(NC(=O)CSc2nc(=O)n(CCN3CCOCC3)c3c2CCC3)cc1Cl,inactive
5,CC(=O)N1N=C(c2cccs2)CC1c1ccco1 (centres undefined),inactive
6,Cc1ccc(Nc2c(-c3cccc(Cl)c3)nc3cccc(C)n23)cc1,"inconclusive: 22.4 µM [inhibitor, single point]"
7,CN(C)CCN(C(=O)c1ccc(N2C(=O)CCC2=O)cc1)c1nc2cc3c(cc2s1)OCCO3,"inconclusive: 11.2 µM [inhibitor, partial curve]"
8,CCOC(=O)C1CCCN(C(=O)Cn2nc(C)n3c(cc4c(OC)cccc43)c2=O)C1 (centres undefined),inactive
9,O=C(OCc1cc(=O)n2c(n1)sc1ccccc12)c1ccc(O)cc1,"inconclusive: 1.12 µM [inhibitor, full curve]"
10,O=C(CSCc1ccccc1Br)N/N=C/c1ccc2c(c1)OCO2,"inconclusive: 8.91 µM [inhibitor, partial curve]"
11,COc1ccccc1N1CCN(Cc2cc(COC(C)C)c3cccnc3c2O)CC1,"inconclusive: 7.08 µM [inhibitor, partial curve]"
12,COc1ccc(S(=O)(=O)N(C(=O)c2ccncc2)c2ccc3oc(C)c(C(C)=O)c3c2)cc1,"inconclusive: 22.4 µM [inhibitor, partial curve]"
13,Cc1ccnc(NC(c2cc(C)ccc2O)c2ccc3cccnc3c2O)c1 (centres undefined),active: 15.8 µM
14,O=C(CCSc1nnc(-c2ccncc2)o1)Nc1ccccc1Cl,"inconclusive: 11.2 µM [inhibitor, partial curve, poor fit]"
15,Cc1ccc(C(=O)c2cc(C)sc2NC(=O)CN2CCN(C(=O)c3ccco3)CC2)cc1,"inconclusive: 12.6 µM [inhibitor, partial curve]"
16,O=c1cc(N2CCN(c3ccc(F)cc3)CC2)[nH]c(=O)n1-c1cccc(Br)c1,inactive
17,CC(C)c1ccc(Cc2cnc(NC(=O)c3ccc4c(c3)CC(c3ccccc3)OC4=O)s2)cc1 (centres undefined),inactive
18,COc1ccc(C(=O)Nc2ccc(N3CCCC3)cc2)cc1,active: 7.94 µM
19,COc1ccc(-c2noc(CCC(=O)Nc3ccccc3Cl)n2)cc1OC,"inconclusive: 12.6 µM [inhibitor, partial curve]"
20,Cc1ccc(C)c(NC(=O)COc2cccc3c2CCN(Cc2ccccc2)C3=O)c1,"inconclusive: 31.6 µM [inhibitor, single point]"
21,COCC(C)n1c(C)cc(C(=O)COC(=O)c2ccc(N3CCCC3=O)cc2)c1C (centres undefined),"inconclusive: 39.8 µM [inhibitor, single point]"
22,CCOC(=O)c1nnc2c(-c3ccc(F)cc3)c(C)nn2c1N,"inconclusive: 4.47 µM [inhibitor, single point]"
23,Cn1c(-c2ccccc2)c(C(=O)CCl)c2ccccc21,"inconclusive: 39.8 µM [inhibitor, single point]"

row,Structure (SMILES),Potency
1,Cc1cccc(Cc2c(C)nc3nc(SCC(=O)NC4CCCCC4)nn3c2C)c1,inactive
2,Cc1cc(NC(=O)c2ccc([N+](=O)[O-])o2)ccc1NC(=O)c1ccco1,active: 14.1 µM
3,Nc1nc(-c2cccc(Br)c2)cs1,"inconclusive: 28.2 µM [inhibitor, partial curve]"
4,COC(=O)CCC(=O)OC1(C)C(=O)C=C2C=C(C3CC3)N(CCc3ccccn3)C=C2C1=O (centres undefined),"inconclusive: 3.98 µM [inhibitor, partial curve, poor fit] and inconclusive: 6.31 µM [inhibitor, partial curve, poor fit]"
5,O=C(CN1C(=O)S/C(=C\C=C\c2ccccc2)C1=O)Nc1cccc(O)c1,"inconclusive: 17.8 µM [inhibitor, partial curve]"
6,CCN(CC)S(=O)(=O)c1cccc(N=Nc2c(O)c3ccccc3oc2=O)c1,"inconclusive: 7.08 µM [inhibitor, partial curve]"
7,COc1ccc(C(=O)Nc2cc(C(C)=O)c(C)oc2=O)cc1,"inconclusive: 35.5 µM [inhibitor, single point]"
8,CC(=O)Nc1nonc1-c1nnc(SCc2cccc(Br)c2)n1C,inactive
9,CN1C(=O)/C(=C/c2ccc(O)c([N+](=O)[O-])c2)NC1=S,active: 15.8 µM
10,CC(C)c1ccc(-c2noc(SCC(=O)N3CCCCC3)n2)cc1,"inconclusive: 5.62 µM [inhibitor, partial curve]"
11,CCOC(=O)c1c(NC(=O)CN2C(=O)NC(C)(c3ccccc3)C2=O)sc(C)c1C (centres undefined),inactive
12,COc1cc(/C=C(\C#N)c2nc3c(s2)CCCC3)ccc1O,active: 11.2 µM
13,O=C1/C(=C/c2cccnc2)Oc2cc(OS(=O)(=O)c3ccccc3)ccc21,"inconclusive: 10 µM [inhibitor, partial curve]"
14,CCOc1ccccc1CNC(=O)c1ccc(Cn2c(=O)c3cccn3c3cccnc32)cc1,inactive
15,O=C(/C=C/c1ccccc1)Nc1cc(-c2nc3ccccc3o2)ccc1Cl,inactive
16,COC(=O)C1=C(C)NC(=S)NC1c1sccc1C (centres undefined),inactive
17,CCOC(=O)c1sc2ncc([N+](=O)[O-])cc2c1N,active: 7.94 µM
18,COc1cc(C)ccc1OCCSc1nnc(-c2cccs2)o1,"inconclusive: 39.8 µM [inhibitor, single point]"
19,COc1ccc(-c2[nH]c(-c3ccc(C(=O)O)cc3)nc2-c2ccccc2)cc1,"inconclusive: 20 µM [inhibitor, partial curve]"
20,O=C1CCS/C(=N\N=C\c2ccc(Cl)cc2Cl)N1,"inconclusive: 31.6 µM [inhibitor, single point]"
21,Oc1nc(Nc2ccccc2)sc1/C=C1\C=Nc2ccccc21,active: 3.55 µM
22,COc1ccc2c(c1)Cc1sc(NC(=O)c3cccc(Cl)c3)nc1-2,"inconclusive: 0.708 µM [inhibitor, full curve]"
23,CC1(C)CC(=O)C(N=Nc2cc(C(F)(F)F)ccc2Cl)=C(O)C1,inactive

row,Structure (SMILES),Potency
1,O=C(Nc1ccc(N2CCN(C(=O)c3ccco3)CC2)cc1)c1ccccc1,"inconclusive: 4.47 µM [inhibitor, partial curve]"
2,COc1cc(C2Nc3ccccc3-c3nnc(SCc4ccc(Cl)cc4)nc3O2)ccc1OCC(=O)O (centres undefined),"inconclusive: 14.1 µM [inhibitor, partial curve, poor fit]"
3,COc1cc(/C=N/Nc2ncc(C(F)(F)F)cc2Cl)cc(OC)c1OC,"inconclusive: 31.6 µM [inhibitor, partial curve]"
4,COc1ccc(NC(=S)Nc2cccc(Cl)c2)cc1OC,"inconclusive: 35.5 µM [inhibitor, single point]"
5,Cc1cc(C)cc(NC(=O)N2CCN(C)c3ncccc32)c1,inactive
6,CCOC(=O)C1(C)C=C(Nc2ccc(O)cc2)C(=O)N1c1ccc(O)cc1 (centres undefined),active: 14.1 µM
7,CSc1ncc(C(=O)NCc2ccccc2Cl)c(C(F)(F)F)n1,inactive
8,CCCCc1nn2c(=O)cc(COC(=O)c3ccc(NC(=O)c4cccc(OC)c4)cc3)nc2s1,inactive
9,Cc1csc(NC(=O)C(NS(=O)(=O)c2ccc(Br)s2)c2ccccc2)n1 (centres undefined),inactive
10,O=C1CC(c2ccco2)CC(O)=C1C=Nc1ccc(Br)cc1 (centres undefined),"inconclusive: 31.6 µM [inhibitor, single point]"
11,CCc1cccc(C)c1NC(=O)C(CC)Sc1nc2ccncc2[nH]1 (centres undefined),inactive
12,CCCCc1ccc(N=N/C(C(=O)Nc2ccc(NC(C)=O)cc2OC)=C(/C)O)cc1,"inconclusive: 11.2 µM [inhibitor, partial curve]"
13,Cc1ccc(CNC(=O)Cn2ccc3ccccc3c2=O)o1,"inconclusive: 31.6 µM [inhibitor, partial curve]"
14,COc1ccc(/C=C2\N=C3CCCCCN3C2=O)cc1OC,inactive
15,CCn1c(CSc2nc3ccccc3s2)nnc1SCC(=O)c1ccc(O)c(O)c1,"inconclusive: 10 µM [inhibitor, partial curve, poor fit]"
16,CCOC(=O)C1=C(N)n2c(s/c(=C\c3ccco3)c2=O)=C(C(=O)OCC)C1c1ccco1 (centres undefined),"inconclusive: 17.8 µM [inhibitor, partial curve]"
17,COc1ccc(/C=C(\C#N)C(=O)c2c(C)[nH]c3ccccc23)cc1OC,"inconclusive: 17.8 µM [inhibitor, single point]"
18,O=C(/C=C/c1ccc(OC(F)F)cc1)OCC(=O)N1CCN(C(=O)c2ccco2)CC1,"inconclusive: 0.316 µM [inhibitor, full curve]"
19,COC(=O)c1ccccc1NC(=O)Cn1ncc2c(C)n(Cc3ccc(F)cc3)c(C)c2c1=O,"inconclusive: 14.1 µM [inhibitor, partial curve]"
20,Cc1ccc(OCCSc2nc3ccccc3n2CC(=O)N2CCCCC2)cc1C,"inconclusive: 17.8 µM [inhibitor, partial curve]"
21,COc1cc(/C=C2\C(=O)NN(c3ccccc3)C2=O)cc([N+](=O)[O-])c1O,active: 11.2 µM
22,CC(=O)c1cccc(Nc2cc(C)nc3nc(-c4ccccc4C)nn23)c1,inactive
23,COC(=O)CCCC1=CC2=CC(=O)C(C)(OC(=O)c3ccc(Cl)nc3)C(=O)C2=CO1 (centres undefined),"inconclusive: 8.91 µM [inhibitor, single point]"
